Assay results taken from PubChem BioAssay AID1963576 (National Center for Advancing Translational Sciences (NCATS), 2024).
Among all 46,000 compounds or so, about 60 (0.1%) were called active. About 3% were inconclusive and are not listed. The call rests on the fitted dose curve; in most records, active means well fitted inhibition curve with a large enough effect; inconclusive means small, poorly fitted or top-dose-only effect; inactive means no such curve, though single readings can be large or run the other way. The list shows a part of the results.

assay: Primary qHTS assay for Inhibitors of ovarian cancer metastasis using an organotypic tumor microenvironment (TME) model.; further: nearly all actives have a fitted effect of over 65% in size;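 on activity change, negative = inhibition: plate controls were DMSO wells for no effect and tomatine positive control wells for full effect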; conditions: SKOV3ip1-GFP adhesion/invasion on 3D omental model, fluorescence; series mostly up to 45.8 µM; activity change, negative = inhibition: at the top concentration
Method in brief: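 qHTS, 4-pt dose (0.36-46 umol/L); SKOV3ip1-GFP, 1,200 cells/well, no FBS; primary omental fibroblast/mesothelial co-culture 48 h pre-grown; 2 h RT + 16 h 37 C; PBS wash, 4% PFA; GFP count 488/509 nm.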

| SMILES | activity change, negative = inhibition | outcome |
| --- | --- | --- |
| CCCCCn1c(=O)[nH]c2cc(C(=O)NCc3ccc(OC)cc3)ccc2c1=O | inactive: -6.15% |  |
| Cc1cccc(N2CCN(C(=O)C3CCN(S(=O)(=O)c4cn(C)cn4)CC3)CC2)c1C |  | inactive |
| COc1ccccc1NC(=O)CN1C(=O)c2cccc3cccc1c23 |  | inactive |
| Nc1ncnc2ccccc12 | inactive: 1.74% |  |
| Cc1ccc(Cl)cc1N1CCN(S(=O)(=O)c2ccc3[nH]c4c(c3c2)CCCC4)CC1 | inactive: 0.646% |  |
| CCc1ccc(NC(=O)C(CC)n2nnc(C(=O)OC)c2C(=O)OC)cc1 (stereo not drawn) | inactive: 7.35% |  |
| CCOc1ccc(-n2nc3cc(C)c(NC(=O)CC)cc3n2)cc1 | inactive: 6.59% |  |
| CCN(CCCNC(=O)c1cc2c(=O)[nH]c3ccc(C)cc3c2s1)c1ccc(C)cc1 |  | inactive |
| CCCNc1nc(NCc2ccccc2OC)c2cnn(C)c2n1 | inactive: -11.5% |  |
| COc1ccc(C2NC(=O)c3c(sc4c3CCN(C)C4)N2)cc1O (stereo not drawn) | inactive: 0.414% |  |
| Cc1cccc(CN2C(=O)CC(c3ccc(Cl)cc3)c3c(C)nn(-c4nc(C)cc(C)n4)c32)c1 (stereo not drawn) | inactive: 0.328% |  |
| CCCCN(CCCC)CCNC(=O)CN1C(=O)CSc2ccc(S(=O)(=O)N3CCCCC3)cc21 | inactive: 6.6% |  |
| COc1ccccc1N(CC(=O)Nc1ccccc1F)S(C)(=O)=O | inactive: 7.8% |  |
| CCOCCCn1c(SCC(=O)Nc2cccc(OC)c2)nc2ccccc2c1=O |  | inactive |
| CCOc1ccccc1CNC(=O)c1cnc2sc(N3CCCC3)nn2c1=O | inactive: 7.02% |  |
| CCC(CO)Nc1ncnc2c1cnn2-c1ccc(C)cc1 (stereo not drawn) | inactive: -0.0887% |  |
| Cc1ccc(NC(=O)N2CCN(c3nnc(C)c4c(C)n(-c5ccccc5)nc34)CC2)cc1Cl | inactive: 1.61% |  |
| CCCN1C(=O)c2ccccc2CC1(C)C(=O)NC1CCCCC1 (stereo not drawn) | inactive: 10.1% |  |
| COc1ccccc1NC(=O)C1CCN(S(=O)(=O)c2ccc3c(c2)oc(=O)n3C)CC1 |  | inactive |
| Cc1ccc(Cl)cc1Nc1nn2c(=O)c3ccc(C(=O)NCc4cccs4)cc3nc2s1 | inactive: -6.52% |  |
| CCOCCc1nn2c(=O)cc(COC(=O)c3cccs3)nc2s1 | inactive: -8.7% |  |
| CCN(c1ccc(Cl)cc1)S(=O)(=O)c1nnc(NC(=O)C2CCCCC2)s1 |  | inactive |
| Cc1ccc2nc(N(Cc3cccnc3)C(=O)c3ccc4c(c3)OCCO4)sc2c1 |  | inactive |
| O=C(NCc1ccc2c(c1)OCO2)c1ccc2c(c1)N(Cc1ccc(F)cc1)C(=O)c1ccccc1S2=O (stereo not drawn) |  | inactive |
| COc1ccc2c(c1)-c1nc(NC(=O)c3ccc(C)cc3)sc1CC2 |  | inactive |
| Cc1cc(C)cc(-n2c(SCC(=O)NCC3CCCO3)nc3c([nH]c4ccccc43)c2=O)c1 (stereo not drawn) |  | inactive |
| CCOc1ccc(-c2cc(NC(=O)c3ccc(C)cc3)c(C(=O)OC)s2)cc1 | inactive: -2.05% |  |
| COc1ccc(-c2noc(-c3ccc(NCCc4ccccc4)c([N+](=O)[O-])c3)n2)cc1OC |  | inactive |
